SMILES strings stand for the structures. About 450 (0.94%) of roughly 48,000 compounds were called active. About 19% were inconclusive and are not listed. The call rests on the fitted dose curve; in most records, active means well fitted inhibition curve with a large enough effect; inconclusive means small, poorly fitted or top-dose-only effect; inactive means no such curve, though single readings can be large or run the other way. The list shows a part of the results.

Here are results for 48 compounds from PubChem BioAssay AID1508623 (National Center for Advancing Translational Sciences (NCATS), 2021).
Potency means the concentration at half of the fitted maximal effect.

The test in a line: Primary qHTS for Identification of Small Molecule Inhibitors of Huntingtin Promoter Activity. Further: nearly all actives have a fitted effect of over 50% in size. The settings on record: HEK293 HTT promoter firefly luciferase reporter (activity 0% = vehicle and -100% = no light), 24 h; series mostly up to 57.5 µM; activity change, negative = inhibition: at the top concentration. In short, it runs like this: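 HEK293 luciferase promoter-reporter cells (2,500/well) plated 24 h, then compounds added at up to 57.5 uM final for 24 h at 37 °C. Firefly luminescence by Dual-Glo, normalized to vehicle (0%) and zero RLU (-100%).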
On to `COc1ccc(CNC(=O)CCCc2nnc3n(C(C)C)c(=O)c4sccc4n23)cc1`, for which the “activity change, negative = inhibition” value was inactive: -24.8%. The same measure, in the same setting: next, `Cc1ccc(S(=O)(=O)Nc2cc(Cl)c3oc4c(c3c2)CCCC4)cc1`: inactive: -21.6%; `COc1ccccc1CNC(=O)CCS(=O)(=O)c1ccc2c(c1)oc(=O)n2C`: inactive: -5.56%. Turning to `CCOC(=O)c1cccc(NC(=O)CSc2ncc3c(n2)-c2ccc(Cl)cc2N(Cc2ccccc2)S3(=O)=O)c1`, the “activity change, negative = inhibition” value is inactive: -16.7%.

Consider `Cc1c(-c2nsc(NC(=O)c3cccs3)n2)nnn1-c1ccc(F)cc1`, for which the “activity change, negative = inhibition” value is inactive: 40.4%. Consider `CCOc1ccc(CNC(=O)CSc2c3c(nc4cc(Cl)ccc24)CCCC3)cc1`, for which the “activity change, negative = inhibition” value is inactive: -20.4%. For the compound `CCN(CC)S(=O)(=O)c1ccc2c(c1)N(CC(=O)Nc1c(C)cccc1C)C(=O)C1CCCN21` (stereo not drawn), the “activity change, negative = inhibition” value was inactive: -17.3%.

As to `Cc1c(C)n(Cc2ccccc2)c2ccc(C(=O)N3CCN(c4ccccc4)CC3)cc12`, the “activity change, negative = inhibition” value is inactive: 2.24%. On to `COc1ccc(C(=O)NC(c2ccccc2Cl)c2cc(Cl)c3cccnc3c2O)cc1` (stereo not drawn), for which the Potency is active: 8.91 µM. In the case of `Cc1ccc(OCC(=O)NCC(=O)OCc2cc(=O)n3nc(C(C)C)sc3n2)cc1`, the “activity change, negative = inhibition” value is inactive: -25.8%. On the same count and under the same terms, next, `CC(C)Oc1ccc(C(=O)N(Cc2ccc(N(C)C)cc2)Cc2ccco2)cc1`: inactive: -24.8%; `CC(=O)O[C@H]1C[C@@H]2CC[C@H]3[C@H]4C[C@H]([N+]5(C)CCCCC5)[C@@H](OC(C)=O)[C@@]4(C)CC[C@@H]3[C@@]2(C)C[C@H]1[N+]1(C)CCCCC1`: inactive: -0.329%; `CCN(C(=O)Cn1c(=O)oc2cc(S(=O)(=O)N3CCCCCC3)ccc21)c1cccc(C)c1`: inactive: -12.6%. Same read-out and setting: as for `Cc1cccc(OC(=O)c2snnc2C)c1`, the figure is inactive: -2.63%. On the same count and under the same terms, as for `Cc1cccc(C)c1Nc1c(-c2ccccn2)nc2ccc(Cl)cn12`, the figure is inactive: -8.36%.

As to `COc1ccc(-c2nc(CSCC(=O)N3CCN(c4ccccc4F)CC3)c(C)o2)cc1`, the Potency is active: 28.2 µM. Turning to `Cn1cc(S(=O)(=O)N2CCCCCC2)cc1C(=O)NCc1ccc(F)cc1`, the “activity change, negative = inhibition” value was inactive: -5.9%. Still for that read-out and setting: next, `COc1ccc(CNCc2ccc(C(=O)O)s2)cc1`: inactive: -17.6%. Still for that read-out and setting: as for `O=C(NCCc1ccc(Cl)cc1)c1ccc(Nc2nc3ccccc3n3nnnc23)cc1`, the figure is inactive: 6.42%; as for `Cc1cccc(NC(=O)C(=O)NCCCN2CCOCC2)c1`, inactive: 13.9%. The same measure, in the same setting: next, `COc1ccc(NC(=O)c2nc(SCc3ccc(F)cc3)ncc2Cl)cc1`: inactive: -10.7%.

Take `CCOc1ccc(NC(=O)c2sc(-n3nc(C)c(CCC(C)C)c3C)nc2C)cc1`: the “activity change, negative = inhibition” value is inactive: -17.7%. Same read-out and setting: next, `CCC(C)Nc1nc2c(c(=O)[nH]c(=O)n2C)n1Cc1ccc(F)cc1` (stereo not drawn): inactive: -13.8%. Regarding `Cc1ccc(-n2ncc3c(NCCc4ccc(S(N)(=O)=O)cc4)ncnc32)cc1`, the “activity change, negative = inhibition” value is inactive: -34.1%. On the same count and under the same terms, as for `CCCCOC(=O)CSc1ncnc2sc3c(c12)CCC(C)C3` (stereo not drawn), the figure is inactive: 1.79%; as for `C=Cc1ccc(Cn2c(C(=O)O)c(CNCCc3ccco3)c3ccc(C)cc32)cc1`, inactive: -24.9%.

For `COC(=O)c1cc2sccc2n1Cc1nc(-c2cccc(Cl)c2)oc1C`, the “activity change, negative = inhibition” value was inactive: -6.17%.

Regarding `OCC(O)CN1CCN(c2ccccc2)CC1` (stereo not drawn), the “activity change, negative = inhibition” value was inactive: 3.95%.

Take `CC1=C(c2ccc(C)cc2)S(=O)(=O)NC1=NCc1ccccc1Cl`: the “activity change, negative = inhibition” value is inactive: -5.52%. On the same count and under the same terms, as for `Cc1ccc2oc(-c3cccc(NC(=O)c4cccc5c(Cl)cccc45)c3)nc2c1`, the figure is inactive: -0.726%; as for `COCCNC(=O)Cn1nc(-c2ccc(C)cc2)c2ccccc2c1=O`, inactive: -16.6% [at 11.5 µM]; as for `COc1cccc(Cn2nnc3c(=O)[nH]c(C4CCCN(C(=O)c5ccccc5Cl)C4)nc32)c1` (stereo not drawn), inactive: -21.2%.

Regarding `CCc1ccccc1NC(=O)COCc1cc(-c2ccco2)on1`, the “activity change, negative = inhibition” value is inactive: 11%. `O=C(NCCc1ccccc1)c1ccc2nc(CCc3ccccc3)oc2c1`: the “activity change, negative = inhibition” value is inactive: 22.7%. For `CCOc1ccc2c(c1)c(=O)c(C(=O)c1ccc(CC)cc1)cn2CC(=O)Nc1cccc(Cl)c1`, the “activity change, negative = inhibition” value is inactive: -16%. Still for that read-out and setting: as for `Cc1cc(C)c(Cn2c(=O)n(CCC(=O)NCc3ccc4c(c3)OCO4)c(=O)c3ccccc32)c(C)c1`, the figure is inactive: -2.53%.

`CCOc1ccc(OCC)c(NC(=O)C2CCN(S(=O)(=O)c3ccc4c(c3)CC(C)N4C(C)=O)CC2)c1` (stereo not drawn): the “activity change, negative = inhibition” value is inactive: -21.9%. On the same count and under the same terms, as for `Cc1ccc2occ(CC(=O)N(Cc3ccc(Cl)cc3)Cc3ccco3)c2c1`, the figure is inactive: -5.44%. Same read-out and setting: as for `Cc1ccc(N2C(=O)[C@@H]3CSC(c4ccc(Cl)cc4)N3C2=O)cc1` (stereo partly drawn), the figure is inactive: -17%; as for `O=C(c1ccco1)N(Cc1cccs1)c1ccc(F)cc1`, inactive: -17.8%; as for `Cc1cc(O)c(C(c2ccccc2)N2CCN(c3ccc(F)cc3)CC2)c(=O)n1Cc1ccco1` (stereo not drawn), inactive: -1.62%.

As to `Cc1ccc(-n2c(CCC(=O)O)ccc2-c2cccs2)cc1Cl`, the “activity change, negative = inhibition” value was inactive: -1.85%. Same read-out and setting: as for `Cc1cccc(OCc2cc(=O)n3c4c(sc3n2)CCCC4)c1C`, the figure is inactive: -6.68%; as for `CCc1ccc(C(=O)CC2(O)C(=O)N(Cc3ccc(C)cc3)c3ccccc32)cc1` (stereo not drawn), inactive: -24.8%. On the same count and under the same terms, as for `CCc1ccccc1NC(=O)c1cc2nc(-c3ccc(Br)cc3)cc(C(F)(F)F)n2n1`, the figure is inactive: -13.7%; as for `CC(C)c1nc2ccc(C(=O)NCc3ccccc3Br)cc2o1`, inactive: -8.02%; as for `COc1cccc(CNC(=O)c2ccc(-n3c(C)cc4c3CCCC4)cc2)c1`, inactive: -2.25%.

Turning to `Cc1noc(-c2ccccc2OCC(=O)Nc2ccccc2[N+](=O)[O-])n1`, the “activity change, negative = inhibition” value was inactive: -5.01%.
